# Data taken from the supplement of paper PMC11417369.
# ± gives the standard deviation of the averaged measurements. The list shows a part of the results.
# Test system: PfAP2-EXP AP2 domain (GST-tagged)
# Experiment: gcPBM binding intensity (ln(normalized median fluorescence intensity)); higher = stronger DNA binding
# Procedure, shortened: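 In this array assay, P. falciparum DNA-binding domains with a GST tag, expressed in E. coli, were applied for 1 h to primer-extended double-stranded 36-bp intergenic genomic probes and negative controls on an Agilent 4 × 180k array. Bound protein was visualised with Alexa488 anti-GST antibody at 488 nm. Binding intensity is the highest Masliner-normalised natural-log median intensity across replicate spots of either probe orientation.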
row,Sequence,gcPBM binding intensity (ln)
1,AGCTCATGCAGGTGTACACAAAAAGAAAAAAAATAA [CACACA_site4828],8.99 ± 0.37
2,ATGTCCTCAATGTTTACACACTCTTTTATATAAGTT [CACACA_site1460],9.05 ± 0.31
3,CCCCATATAATGAACACACACACTCCTCATAATTAA [CACACA_site628],8.96 ± 0.3
4,ATAAATAATGTTGACACACACAATAATCTTATTATG [CACACA_site3593],8.4 ± 0.44
5,TATTAATTTATATCAACACACAAAATCAATATACTT [CACACA_site1757],8.36 ± 0.39
6,CGAAATATTATGTACGCACACACATTTTTAATATAT [CACACA_site3852],8.63 ± 0.23
7,AAGGAATAATATAAAACACACACATAAATATAAATA [CACACA_site9115],8.68 ± 0.26
8,ATATAGATCAGACACACACACATGTTTTAAAACTAT [CACACA_site6186],8.86 ± 0.56
9,AACATAAATATATATAGTACATATATATATATTCAA [XGTACX_site7287],8.31 ± 0.25
10,TTCTATATTTTAGCTGATAATATTATGAGCTTCACT [XGTACX_negctrl_site427],8.57 ± 0.32
11,TCTTTAATGAACAAATGTACAAGAACAATACCCGCA [XGTACX_site2047],8.97 ± 0.47
12,CTTTAACCTTTTTATTGTACTTTTAATATTTTAAAA [XGTACX_site4457],8.73 ± 0.38
13,AATATATGGTATAATTGTACAAAAAAAAAAAAAAAA [XGTACX_site1476],8.35 ± 0.56
14,GTGAAATGGAAAAAAAGTACAGATTACATAAGTATT [XGTACX_site6355],8.64 ± 0.42
15,TTTTTTATTTTAATGTATTATTTTTATGTAATATAT [GTGCAC_negctrl_site391],8.29 ± 0.33
16,GATATGATTACCTTATGGTGTTTTTGATGGATAGTT [CACACA_negctrl_site1504],8.62 ± 0.5
17,TTTTATTATTTATATACACACTTGCTGAAATGTTAT [CACACA_site5919],8.59 ± 0.47
18,TATAATAATAATGATAGTACGTATGAGTTCAAAAAA [XGTACX_site608],8.55 ± 0.42
19,TATATACAAATATGCTGTACAAAAAAAAAAAAAAAA [XGTACX_site4732],8.22 ± 0.42

row,Sequence,gcPBM binding intensity (ln)
1,CGGTATTTTTTAATTTGTACGCATATACAATAATTA [XGTACX_site8603],8.61 ± 0.45
2,AATTGTTCGATATATGCACACAGTTTTGTTATTTTT [CACACA_site1615],8.74 ± 0.3
3,TATTTATATTTATATACACACTATATAACTCAAACA [CACACA_site6611],8.36 ± 0.39
4,CTAGCAAATACATACACACACACACGGATACCTATA [CACACA_site7609],8.76 ± 0.58
5,TATATAACTTTATTTTTCTTTACTTATTTTATTTTA [GTGCAC_negctrl_site66],8.47 ± 0.42
6,ATATATATATATATATGTACATATTATTAATAATAT [XGTACX_site6667],10.2 ± 0.35
7,AAAGAAAAAAAAAAAAGTACATAAATATAAAAAGAA [XGTACX_site6753],8.88 ± 0.43
8,TTTTTTAAAATATATATAATGAATTTTTTTTTTTTT [CACACA_negctrl_site1577],7.8 ± 0.51
9,GTATAATATGAACACACACACACACCCAAAAAAAAA [CACACA_site5152],8.79 ± 0.42
10,TTATGGAACCCCATTCGTACATAAATATTTTATATA [XGTACX_site7112],8.4 ± 0.35
11,ATACATATTAACAAGGTGCAAATGGATTTCATAAAA [GTGCAC_site9775],8.995 ± 0.035
12,TTTTTTTTTTTGTGAGTGCACGTATGAAGAGAAAAA,9.63 ± 0.3
13,ATGTCTATATATTAAGGTACACATATATGCTATTCA [XGTACX_site6008],8.47 ± 0.39
14,AAAATATACATAAACACACACAAAACGTTTAAGAAA [CACACA_site1071],8.84 ± 0.66
15,ATATTAATTTTTATTACACACTCTCAATTTTTATTT [CACACA_site58],8.73 ± 0.38
16,GTTTAACTGTTTTATACACACAATGTATCCAATAAA [CACACA_site5612],8.88 ± 0.43
17,TTTTAGTTAATTCATGCATGTAAAGTTTTATTTATA [TGCATGCA_site252],9.01 ± 0.2
18,AAAAAAAAAAAAAAAGTACACACTTTTGCGTACATG [CACACA_site3097],8.44 ± 0.13
19,TTTATGCACGCGTGCACACACATATGAAAAAAGGTA [CACACA_site3315],9.48 ± 0.13

row,Sequence,gcPBM binding intensity (ln)
1,TATGTTTAAATATATTGTACGCACGTATGTTTTTAA [XGTACX_site1108],8.52 ± 0.24
2,TATATATTAAAAATAGTGCAAAATAATATATATATA [GTGCAC_site9716],9.845 ± 0.049
3,AATACCTTTTAATAATGTACAAACAAAAATTAGAGA [XGTACX_site6850],8.71 ± 0.45
4,ATATATATATATATATGTACATATTCATCTTATTCT [XGTACX_site1537],10 ± 0.42
5,AAGGGGAGAAAAATAAACGAAATATATACATACATA [XGTACX_negctrl_site88],8.64 ± 0.47
6,ACAAATAAATATATATGTACATATATTTTTTTATTT [XGTACX_site2989],8.56 ± 0.37
7,TTTTATTTATATTATACACACAAGGAAAAAAAAAAA [CACACA_site7690],8.64 ± 0.31
8,TTTTGATATAAATATTAGATTAATAAATAAAAAAAT [CACACA_negctrl_site1635],8.37 ± 0.42
9,TTAAAATAGATATTAGTGCAAAAAAAAAAAAATAAA,8.8 ± 0.17
10,TTTTTTGTTTGAATGGTGCATTTTGTAATTATATTT,8.965 ± 0.049
11,ATAATATCATAATATTGTACATATTTTATTTTAAAT [XGTACX_site1115],8.36 ± 0.29
12,CAACTAACATATATTCAACACACATATACCTTCAAC [CACACA_site8988],8.55 ± 0.46
13,GATATATTATTTGAATGTACATATTATATTTATATT [XGTACX_site907],8.45 ± 0.33
14,ATTGTATATGTATATGCACACAATATATGTACTTAT [CACACA_site2611],8.49 ± 0.18
15,TAACATATTATATATACATGCATACGTGAACTAATC [TGCATGCA_site888],8.89 ± 0.26
16,TTTTTTTAGTTAATTAAACACACAAAAAAAAAAATA [CACACA_site9301],8.36 ± 0.43
17,GTTAGAATTGTTAGGTGGTCAAAAAGGAGAAAAAAA [XGTACX_site2086],8.77 ± 0.31
18,ATTATTTAATTTTATTAAAAAAAAACAAATTAACAG [GTGCAC_negctrl_site152],8.24 ± 0.3
19,AAAAGAAAATTAAATTAACACACATAAATATATATA [CACACA_site8482],8.43 ± 0.14
